The supplement of paper PMC11417369
± gives the standard deviation of the averaged measurements. The list shows a part of the results.

tested on: PfAP2-LT AP2 domain (GST-tagged); assay: gcPBM binding intensity (ln(normalized median fluorescence intensity)); higher = stronger DNA binding
Method in brief: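 In this array assay, P. falciparum DNA-binding domains with a GST tag, expressed in E. coli, were applied for 1 h to primer-extended double-stranded 36-bp intergenic genomic probes and negative controls on an Agilent 4 × 180k array. Bound protein was visualised with Alexa488 anti-GST antibody at 488 nm. Binding intensity is the highest Masliner-normalised natural-log median intensity across replicate spots of either probe orientation.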

“TTTTGTACATCTTTTGCACACGTAATGTTATTATAA [CACACA_site1259]” and “AATAAATAAAAATGCACACAGTTAACATGTTGAATT [CACACA_site4795]” are within error of each other in “gcPBM binding intensity (ln)” value: 9.26 ± 0.42 for the first, 9.15 ± 0.42 for the second.

“CAATGAAAAATAATGAGTACATAGTTAATAAAGATA [XGTACX_site72]” and “TTTAAAGTTTTATACACACACCAAAGTTATTCTAAT [CACACA_site6432]” are the same in “gcPBM binding intensity (ln)” value: 8.88 ± 0.47 for the first, 8.88 ± 0.38 for the second.

“AATTTCTTTTTCGATATACACACTGTATGTGTCTAA [CACACA_site3975]” and “ATAATTAAAATTAAATGTACTTTTTTATATATTTTT [XGTACX_site2209]” are within error of each other in “gcPBM binding intensity (ln)” value: 9.29 ± 0.61 for the first, 8.43 ± 0.55 for the second.

Going from “TGCAATATATCAAAGTGTACATGCAATAAAAAAAAA [XGTACX_site652]” to “AATGATACACATATATGTACATATATATATATATAT [XGTACX_site5391]”, the “gcPBM binding intensity (ln)” value rises from 9.01 ± 0.45 to 9.84 ± 0.12.

“TATATACATATATGCACACAAAAAAATATATATTTT [CACACA_site1729]” and “ATATGGATTATACATACATGCATACATACATACATA [TGCATGCA_site475]” are within error of each other in “gcPBM binding intensity (ln)” value: 9.02 ± 0.34 for the first, 8.91 ± 0.36 for the second.

“AAAATTTAATATAATGCACACATAAAACAAAAACAA [CACACA_site8071]” and “AAATGTAGAAAAAGTTGTACACTGTTTCAAAAATAA [XGTACX_site1063]” are within error of each other in “gcPBM binding intensity (ln)” value: 9.12 ± 0.4 for the first, 8.64 ± 0.52 for the second.

First: TTATTTTTCTTTATTGGTACACACGAAAAAAAAATT [XGTACX_site6482]
Second: GCCCACACGAACCATGCATGCCACGATATAAACCAC [TGCATGCA_site322]
The “gcPBM binding intensity (ln)” value of the first is lower: 8.47 ± 0.32 for the first, 9.14 ± 0.33 for the second.

Going from “TTTTTTACAGAAAAATATTAAAATTATAAATGTGAA [GTGCAC_negctrl_site451]” to “TATGAAATTTTAATTACACACAGGAAAATAAAATGT [CACACA_site8430]”, the “gcPBM binding intensity (ln)” value rises from 8.07 ± 0.43 to 8.95 ± 0.39.

First: TAATATATATATATGGTGCATTTAATTTATATATAA
Second: AAAAAACAATTTGTGTGTACACATGATACGTTCGAT [XGTACX_site4112]
The “gcPBM binding intensity (ln)” value of the first is lower: 8.54 ± 0.33 for the first, 9.39 ± 0.28 for the second.

“AAGAAGTGGAAAATATACTCCACATATATATATGTG [CACACA_negctrl_site304]” and “ATATATATTTTTAATTGTACAGAATTAAAAATATTG [XGTACX_site1967]” are within error of each other in “gcPBM binding intensity (ln)” value: 8.72 ± 0.5 for the first, 8.35 ± 0.39 for the second.

“AAAAAAAAAAAAAGCTGTACAATTAAAGACAAACCT [XGTACX_site8610]” and “CTTTAACCATATATGTGTACGTATTTTATTCATATT [XGTACX_site6212]” are within error of each other in “gcPBM binding intensity (ln)” value: 8.94 ± 0.33 for the first, 9.11 ± 0.39 for the second.

“GTGAGTGAAATATGCAAACACACACCCGAAAAATGT [CACACA_site3197]” and “TATAAAGGTATACAAAGTACAAAATACATATATACT [XGTACX_site6431]” are within error of each other in “gcPBM binding intensity (ln)” value: 9.61 ± 0.38 for the first, 9.02 ± 0.42 for the second.

“TATGATTTTAATGAAACACACAATTTTATGTTAATA [CACACA_site311]” and “TAAAGTTTTTCCTATCTATATTTATATTATAAATGA [XGTACX_negctrl_site20]” are within error of each other in “gcPBM binding intensity (ln)” value: 8.47 ± 0.42 for the first, 8.24 ± 0.42 for the second.

“CAAATAATATTATGAAGTACTTCAAATTTTGAAAGA [XGTACX_site2530]” and “TTTAATATTATTATTTTACACACTTTTTTCCTTTTA [CACACA_site8780]” are within error of each other in “gcPBM binding intensity (ln)” value: 8.54 ± 0.5 for the first, 8.79 ± 0.62 for the second.

“AATATAGGTATATCCACACACATATTTATATTTATA [CACACA_site6867]” and “TCTTATAAACTCTGCACACATAATATATTAAATGAG [CACACA_site1936]” are within error of each other in “gcPBM binding intensity (ln)” value: 9.14 ± 0.38 for the first, 8.91 ± 0.3 for the second.

“TGTGTATAAGTCACTTGTACTAGTAGTAAAAAAAAA [XGTACX_site4341]” and “TAATATATGTTATATACACACATATAAATATAAATA [CACACA_site6339]” are within error of each other in “gcPBM binding intensity (ln)” value: 8.87 ± 0.56 for the first, 8.97 ± 0.28 for the second.

“TGAAGTATAATTTATCTAATATGTTATATTTTATTT [TGCATGCA_negctrl_site56]” and “ATATTAATTTCTCATGCATGTTCTACCCAATTGTAA [TGCATGCA_site355]” are within error of each other in “gcPBM binding intensity (ln)” value: 8.43 ± 0.6 for the first, 8.93 ± 0.43 for the second.

“AAAATCTAATATAATGCACACATAAAAAAAAATCAA [CACACA_site9211]” and TTTTGTTATTATGAAGTGCATTTATGTTCATGTCTA are within error of each other in “gcPBM binding intensity (ln)” value: 9.02 ± 0.57 for the first, 8.77 ± 0.4 for the second.

“AAAAAAAAAAAAAATTCACACAAGACTACTACATTT [CACACA_site4195]” and “ATATATGACTAATAAAGTACATACTTCATATAATTA [XGTACX_site6699]” are within error of each other in “gcPBM binding intensity (ln)” value: 8.71 ± 0.4 for the first, 8.72 ± 0.4 for the second.

“AATATTAAAAACAAAACACACAAAAAAAAATAAAAT [CACACA_site702]” and “ACCCTTTTATATAAGAGTACAAACGTATTATTAAAT [XGTACX_site2221]” are within error of each other in “gcPBM binding intensity (ln)” value: 9.03 ± 0.58 for the first, 8.64 ± 0.42 for the second.

Compared with TATATTATATATATACTGCACTGTTTTACAAAATTA, “GTAGTGGTTGAATATACACACATATATATATATATA [CACACA_site2651]” is higher in “gcPBM binding intensity (ln)” value: 8.76 ± 0.38 for the first, 9.87 ± 0.28 for the second.

“AACGTGTATTTATATTGTACACATTCATACATCAAA [XGTACX_site3644]” and “AGATAATAGGTTACTTGTACATATAAATAAATATAT [XGTACX_site158]” are within error of each other in “gcPBM binding intensity (ln)” value: 8.81 ± 0.35 for the first, 8.71 ± 0.45 for the second.

With “TATATAAATAAACACACACACACCTTATAATTATTA [CACACA_site9345]” the “gcPBM binding intensity (ln)” value was 9.775 ± 0.078.
